Single values are uncertain, as repeats are few or missing.
Assays:
CHO-K1 [1] = test: micronucleus frequency (% of nucleated events); higher = more micronuclei (genotoxic)
CHO-K1 [2] = test: relative survival (nuclei to bead ratio vs DMSO control) (% of vehicle control); higher = more surviving cells
CHO-K1 [3] = test: hypodiploid nuclei frequency (% of nucleated events); higher = more hypodiploid events (aneugenic)
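For hypodiploid nuclei frequency (% of nucleated events) in this document: hypodiploid nuclei gated on a flow cytometer with 488 nm excitation after SYTOX Green staining, cultures at 37 °C, positive controls vinblastine without S9 and cyclophosphamide with S9.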
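For micronucleus frequency (% of nucleated events) in this document: cells lysed with nuclei stained by SYTOX Green, then micronucleus-gated events counted against nucleated events by flow cytometry with 488 nm excitation.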
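For relative survival (nuclei to bead ratio vs DMSO control) in this document: Lysed-cell nuclei stained with SYTOX Green and counted against counting beads by flow cytometry at 488 nm excitation, with vinblastine (no S9) and cyclophosphamide (plus S9) as positive controls.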

CCN(Cc1cccc(S(=O)(=O)O)c1)c1ccc(C(=C2C=CC(=[N+](CC)Cc3cccc(S(=O)(=O)O)c3)C=C2)c2ccccc2S(=O)(=O)[O-])cc1 [FD&C Blue No. 1]
Conditions | hypodiploid nuclei frequency, CHO-K1 [3] [%] | micronucleus frequency, CHO-K1 [1] [%] | relative survival, CHO-K1 [2]
concentration: 2.9 (µM), S9 metabolic activation: with S9, exposure time: 3-4 hours | 0.24 | 0.88 | 86.7
concentration: 2.9 (µM), S9 metabolic activation: without S9, exposure time: 24 hours | 0.46 | 1.46 | 96.5
concentration: 3.63 (µM), S9 metabolic activation: with S9, exposure time: 3-4 hours | 0.22 | 0.65 | 71.4
concentration: 3.63 (µM), S9 metabolic activation: without S9, exposure time: 24 hours | 0.54 | 1.52 | 93.4
concentration: 4.54 (µM), S9 metabolic activation: with S9, exposure time: 3-4 hours | 0.14 | 0.8 | 73.5
concentration: 4.54 (µM), S9 metabolic activation: without S9, exposure time: 24 hours | 0.44 | 1.68 | 92.4
concentration: 5.67 (µM), S9 metabolic activation: with S9, exposure time: 3-4 hours | 0.24 | 0.83 | 73.3
concentration: 5.67 (µM), S9 metabolic activation: without S9, exposure time: 24 hours | 0.44 | 1.72 | 107
concentration: 7.1 (µM), S9 metabolic activation: with S9, exposure time: 3-4 hours | 0.13 | 0.78 | 69.5
concentration: 7.1 (µM), S9 metabolic activation: without S9, exposure time: 24 hours | 0.74 | 0.88 | 97.6
concentration: 8.9 (µM), S9 metabolic activation: with S9, exposure time: 3-4 hours | 0.24 | 0.86 | 61.9
concentration: 8.9 (µM), S9 metabolic activation: without S9, exposure time: 24 hours | 0.36 | 1.26 | 113
concentration: 11.1 (µM), S9 metabolic activation: with S9, exposure time: 3-4 hours | 0.24 | 0.52 | 80.7
concentration: 11.1 (µM), S9 metabolic activation: without S9, exposure time: 24 hours | 0.6 | 1.22 | 150
concentration: 13.9 (µM), S9 metabolic activation: with S9, exposure time: 3-4 hours | 0.24 | 0.92 | 78.8
concentration: 13.9 (µM), S9 metabolic activation: without S9, exposure time: 24 hours | 0.78 | 1.14 | 115
concentration: 17.3 (µM), S9 metabolic activation: with S9, exposure time: 3-4 hours | 0.1 | 0.7 | 90.4
concentration: 17.3 (µM), S9 metabolic activation: without S9, exposure time: 24 hours | 0.54 | 1.4 | 113
concentration: 21.6 (µM), S9 metabolic activation: with S9, exposure time: 3-4 hours | 0.12 | 0.84 | 65.3
concentration: 21.6 (µM), S9 metabolic activation: without S9, exposure time: 24 hours | 0.56 | 1.22 | 111
concentration: 27.1 (µM), S9 metabolic activation: with S9, exposure time: 3-4 hours | 0.18 | 0.66 | 76.7
concentration: 27.1 (µM), S9 metabolic activation: without S9, exposure time: 24 hours | 0.5 | 1.04 | 92.7
concentration: 33.8 (µM), S9 metabolic activation: with S9, exposure time: 3-4 hours | 0.16 | 0.66 | 92.5
concentration: 33.8 (µM), S9 metabolic activation: without S9, exposure time: 24 hours | 0.3 | 1.1 | 116
concentration: 42.3 (µM), S9 metabolic activation: with S9, exposure time: 3-4 hours | 0.28 | 0.86 | 104
concentration: 42.3 (µM), S9 metabolic activation: without S9, exposure time: 24 hours | 0.56 | 0.72 | 109
concentration: 52.8 (µM), S9 metabolic activation: with S9, exposure time: 3-4 hours | 0.22 | 0.82 | 72.5
concentration: 52.8 (µM), S9 metabolic activation: without S9, exposure time: 24 hours | 0.48 | 0.76 | 88.6
concentration: 66 (µM), S9 metabolic activation: with S9, exposure time: 3-4 hours | 0.16 | 0.8 | 91.1
concentration: 66 (µM), S9 metabolic activation: without S9, exposure time: 24 hours | – | – | 31.2
concentration: 83 (µM), S9 metabolic activation: with S9, exposure time: 3-4 hours | 0.14 | 0.78 | 87.1
concentration: 83 (µM), S9 metabolic activation: without S9, exposure time: 24 hours | – | – | 3.09
concentration: 103 (µM), S9 metabolic activation: with S9, exposure time: 3-4 hours | 0.18 | 0.86 | 78.6
concentration: 129 (µM), S9 metabolic activation: with S9, exposure time: 3-4 hours | 0.14 | 0.54 | 78.2

O=S(=O)(O)c1ccc(N=Nc2c(O)ccc3cc(S(=O)(=O)O)ccc23)cc1 [FD&C Yellow 6]
Conditions | hypodiploid nuclei frequency, CHO-K1 [3] [%] | micronucleus frequency, CHO-K1 [1] [%] | relative survival, CHO-K1 [2]
concentration: 4.5 (µM), S9 metabolic activation: with S9, exposure time: 3-4 hours | 0.36 | 1.3 | 148
concentration: 4.5 (µM), S9 metabolic activation: without S9, exposure time: 24 hours | 0.46 | 1.28 | 114
concentration: 5.63 (µM), S9 metabolic activation: with S9, exposure time: 3-4 hours | 0.2 | 1.32 | 158
concentration: 5.63 (µM), S9 metabolic activation: without S9, exposure time: 24 hours | 0.54 | 1.44 | 104
concentration: 7.04 (µM), S9 metabolic activation: with S9, exposure time: 3-4 hours | 0.3 | 1.46 | 133
concentration: 7.04 (µM), S9 metabolic activation: without S9, exposure time: 24 hours | 0.74 | 2.18 | 103
concentration: 8.8 (µM), S9 metabolic activation: with S9, exposure time: 3-4 hours | 0.2 | 1.78 | 185
concentration: 8.8 (µM), S9 metabolic activation: without S9, exposure time: 24 hours | 0.6 | 2.06 | 99
concentration: 11 (µM), S9 metabolic activation: with S9, exposure time: 3-4 hours | 0.12 | 1.66 | 156
concentration: 11 (µM), S9 metabolic activation: without S9, exposure time: 24 hours | 0.76 | 1.58 | 123
concentration: 13.7 (µM), S9 metabolic activation: with S9, exposure time: 3-4 hours | 0.2 | 1.34 | 129
concentration: 13.7 (µM), S9 metabolic activation: without S9, exposure time: 24 hours | 0.58 | 2.16 | 130
concentration: 17.2 (µM), S9 metabolic activation: with S9, exposure time: 3-4 hours | 0.18 | 1.46 | 136
concentration: 17.2 (µM), S9 metabolic activation: without S9, exposure time: 24 hours | 0.78 | 2.26 | 113
concentration: 21.5 (µM), S9 metabolic activation: with S9, exposure time: 3-4 hours | 0.16 | 1.68 | 119
concentration: 21.5 (µM), S9 metabolic activation: without S9, exposure time: 24 hours | 0.74 | 2.12 | 107
concentration: 26.8 (µM), S9 metabolic activation: with S9, exposure time: 3-4 hours | 0.22 | 1.76 | 193
concentration: 26.8 (µM), S9 metabolic activation: without S9, exposure time: 24 hours | 6.04 | 1.38 | 112
concentration: 33.6 (µM), S9 metabolic activation: with S9, exposure time: 3-4 hours | 0.14 | 1.16 | 144
concentration: 33.6 (µM), S9 metabolic activation: without S9, exposure time: 24 hours | 0.92 | 1.34 | 134
concentration: 41.9 (µM), S9 metabolic activation: with S9, exposure time: 3-4 hours | 0.2 | 1.12 | 126
concentration: 41.9 (µM), S9 metabolic activation: without S9, exposure time: 24 hours | 0.76 | 1.12 | 135
concentration: 52.4 (µM), S9 metabolic activation: with S9, exposure time: 3-4 hours | 0.46 | 1.56 | 118
concentration: 52.4 (µM), S9 metabolic activation: without S9, exposure time: 24 hours | 0.8 | 1.12 | 101
concentration: 65.5 (µM), S9 metabolic activation: with S9, exposure time: 3-4 hours | 0.16 | 1.5 | 111
concentration: 65.5 (µM), S9 metabolic activation: without S9, exposure time: 24 hours | 1.76 | 1.22 | 108
concentration: 81.9 (µM), S9 metabolic activation: with S9, exposure time: 3-4 hours | 0.16 | 1.06 | 132
concentration: 81.9 (µM), S9 metabolic activation: without S9, exposure time: 24 hours | 1.8 | 0.96 | 114
concentration: 102 (µM), S9 metabolic activation: with S9, exposure time: 3-4 hours | 0.16 | 1.08 | 158
concentration: 102 (µM), S9 metabolic activation: without S9, exposure time: 24 hours | 1.32 | 1.7 | 125
concentration: 128 (µM), S9 metabolic activation: with S9, exposure time: 3-4 hours | 0.08 | 1.12 | 113
concentration: 128 (µM), S9 metabolic activation: without S9, exposure time: 24 hours | 4.32 | 1.6 | 101
concentration: 160 (µM), S9 metabolic activation: with S9, exposure time: 3-4 hours | 0.2 | 1.46 | 116
concentration: 160 (µM), S9 metabolic activation: without S9, exposure time: 24 hours | 3.48 | 2.46 | 122
concentration: 200 (µM), S9 metabolic activation: with S9, exposure time: 3-4 hours | 0.28 | 1.48 | 105
concentration: 200 (µM), S9 metabolic activation: without S9, exposure time: 24 hours | 5.42 | 1.94 | 99
